Earlier results in paper PMC4351876 (Cancer prevention research (Philadelphia, Pa.), 2013).

Legend:
[1] = cited from earlier work
colorectal polyps = details: patients with familial adenomatous polyposis; cited from earlier work
[2] = test system: oral premalignant lesions; details: single agent celecoxib, after 12 weeks; cited from earlier work

SMILES	average CL/F ([1]; previous phase 2 trials, 150mg QD)	average V/F ([1]; previous studies, cancer patients, average body weight ∼69 kg)	elimination half-life (t1/2) ([1]; previously reported)	t1/2 ([1]; study with cancer patients)	reduction in the number of colorectal polyps (colorectal polyps)	biopsies showing improvement in the degree of dysplasia [2]
C#Cc1cccc(Nc2ncnc3cc(OCCOC)c(OCCOC)cc23)c1 [erlotinib]	~3.95 L/h	~220 L	> 24 h	~37.5 h	–	–
Cc1ccc(-c2cc(C(F)(F)F)nn2-c2ccc(S(N)(=O)=O)cc2)cc1 [celecoxib]	–	–	–	–	28%	12 out of 18
